Data as given in the supplement of paper PMC11417369.
This is one part of the list.

Tested on: PfSIP2 AP2 domain 1 (GST-tagged)
Assay: gcPBM binding intensity (ln(normalized median fluorescence intensity)); higher = stronger DNA binding
Summary of the method: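 GST-tagged P. falciparum DNA-binding domains produced in E. coli were incubated for 1 h on an Agilent 4 × 180k array of primer-extended double-stranded 36-bp intergenic genomic probes with negative controls. Binding intensity is the highest Masliner-normalised natural-log median intensity across replicate spots of either probe orientation, with bound protein detected by Alexa488 anti-GST antibody at 488 nm.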

| Sequence | gcPBM binding intensity (ln) |
| --- | --- |
| CTATTTCAATTTAGTGCACACATTTTAATTTATAAG [CACACA_site2040] | 10.5 |
| CATTATTATTAACATACACACGTGTTAAATACACCC [CACACA_site6118] | 7.25 |
| TATGAAAAGATATATACACACATAATAAAGGTATAT [CACACA_site7713] | 7.14 |
| ATTAAAACAAAATGTACACACATATCATTTAATGAC [CACACA_site6543] | 7.12 |
| TTTTAATCTTAATTATGTACATATAAAATGTGTATA [XGTACX_site7382] | 6.99 |
| ATATTCATTAACCACACACACAAAAAAAATAAAATT [CACACA_site3801] | 7.15 |
| ATATATGTATTTAATACACACAAAACTTTCATTCCA [CACACA_site3531] | 6.9 |
| ATACATATATGCTTCTGTACACATAATTTATAAAAA [XGTACX_site7000] | 7.31 |
| TTTTTAGAAAGACATGCATGTAATAAAAATAAATAA [TGCATGCA_site685] | 7.1 |
| AATTTTGTTAAAAGGACACACAATTCAATATATTAA [CACACA_site647] | 6.99 |
| TACACGTTCTACATTTGTACTTAATTTATACATAAG [XGTACX_site1579] | 7.17 |
| TACGTCTTTTTTTTGGTGCATAATTTTTTTGTACAA | 10.9 |
| GCTATTAATTTATAAGCACACAATATAAATATATAT [CACACA_site2251] | 7.09 |
| ATTACATGATATATCACACACACATATAGATATATA [CACACA_site7352] | 7.27 |
| TATGTCGACATTTAAAGTACAAAAAAAAAAAAAAAA [XGTACX_site8985] | 7.13 |
| ATTTATTTAAACAAATCACACACAAATATATATACA [CACACA_site8622] | 7.14 |
| TATATTAAAATATTCACACACTAACGTAAATCATTG [CACACA_site5520] | 6.84 |
| TATATATGTGTTATATACCCTTTTTTATATATTAAT [XGTACX_negctrl_site313] | 6.91 |
| CATACATAGATATATACACACATACCTATAAATACA [CACACA_site6513] | 7.32 |
| TAAAAATCCACAAGCACACAAATGTACATATATATA [CACACA_site2462] | 7.36 |
| TATAAAAAGCATAACACACACATGTCAATATATATA [CACACA_site1111] | 7.34 |
| ATAGAACAGAAAAGGCGTACAATAATATGTAAACAA [XGTACX_site2828] | 7.53 |
| AAAAAAAAAATATGTACACACATATATAATACATAA [CACACA_site1639] | 7.21 |

| Sequence | gcPBM binding intensity (ln) |
| --- | --- |
| AGAAAAGAGAAAAGTAGTACAAAGGATCATTTAAAA [XGTACX_site5294] | 6.97 |
| TTAAGTCCGTTAACAGTGCATTTTTTCTTTTATGTA [GTGCAC_site9867] | 8.46 |
| ATTAAAAAAATATAAACACACAAAAAAAAAATATAC [CACACA_site1100] | 7.34 |
| TAATGAAAAAATAAAAGAATAAATAAATAAATAAAT [TGCATGCA_negctrl_site130] | 7.13 |
| AATAAAAAAAGTTTTTTTTTTTTTTAAACAATAGAC [CACACA_negctrl_site1061] | 7.37 |
| AATAACCACCAACACACACACATATATATATATATA [CACACA_site3540] | 9.48 |
| ATAATAATAATAAAAAGTACATTTAATTATATAGAA [XGTACX_site7742] | 6.95 |
| AAAAATTTAATGAAATGTACATATATGTTATTAATA [XGTACX_site6091] | 7.17 |
| TATATGTTTTAAAAGTGTACTTTAGTTTCAATTTTT [XGTACX_site4269] | 6.79 |
| AAGAATGTTAATAGTACACACAATTATTATATAAAT [CACACA_site3739] | 7.05 |
| TAAATGCACATATACACACACCCAATTTTAAGTTTT [CACACA_site7428] | 7.15 |
| ATACATATTACATGTTGTACTCCAACAAAAATGCCC [XGTACX_site3201] | 7.58 |
| TTAATTTCATTTTCTACACACCTATCCTTTTTTTTT [CACACA_site772] | 6.71 |
| ACATCAAGAATTATTAAGAATACGGATAGATAAAAT [GTGCAC_negctrl_site261] | 6.99 |
| TTTCAAAATGTGTAAAATAAAAATAATATCATTACA [TGCATGCA_negctrl_site521] | 7 |
| ATGTGATATAAGTACACACACATATGTATATAGAAT [CACACA_site1823] | 7.17 |
| AATGTATATATGTAATGTACATATGTAATGTATATA [XGTACX_site6509] | 7.03 |
| AATATAGATATAACCACACACATACATCTAATTCTA [CACACA_site1760] | 6.97 |
| GAAAAGAACAAGAGCATGCACTTAATAAGAATAATA | 7.25 |
| TGTTTCTTATTTTTTTCACACACTAAACATTTCAAA [CACACA_site2218] | 7.56 |
| AAAAAAAGATTATACACACACATATATAAACCTACA [CACACA_site710] | 6.97 |
| TCTATACCTATTCTTACACACATATGTATATATATA [CACACA_site563] | 8.1 |
| TTTTTTTTTTTTGAAACATGCATTGTTTTATTCTTA [TGCATGCA_site15] | 6.74 |

| Sequence | gcPBM binding intensity (ln) |
| --- | --- |
| ATATATATATAATCAAGTACACAGTAATAAAAAGAA [XGTACX_site1070] | 8.59 |
| AATAATAACTGTAGGTGTACGTAAAAAAAAAATTAT [XGTACX_site3133] | 7.32 |
| ATTGTGTTCATCAGCACACACAACATCATGCAATAA [CACACA_site6960] | 7.15 |
| TTTTTTTTTTTTTGTTGTACAATACTTAATCATTAT [XGTACX_site3422] | 7.33 |
| TAAATATATATTATATGTACTTATATATATATATAT [XGTACX_site4448] | 9.59 |
| TAAATCAGCCATAACACACATACATATATACATAAA [CACACA_site396] | 7.04 |
| TTTTTCATTTTTAAAATAATTATAATATTATACATA [XGTACX_negctrl_site43] | 7.25 |
| ATAATTAACAAATACACACACACACGCCCACAAAAA [CACACA_site6389] | 7.22 |
| AGCAAATAAATAAATAAATAAATAAATATATATATA [TGCATGCA_negctrl_site40] | 9.16 |
| TTTTAATAAAAGCCCATGCACACCTTAGAAAGTTTT [CACACA_site346] | 7.28 |
| ATATATATGTGTAAAAGTACATATATTTTGAAATAT [XGTACX_site4024] | 7.21 |
| TGGGCACCCATATACACACACAAATACAATGATAAA [CACACA_site4762] | 8.64 |
| TATATATATGTATATGTGCACAGTTTTCTTATTAAA [GTGCAC_site9990] | 9.31 |
| GGAAAAGGTATCCGTTCACACATAAATGGATACCAT [CACACA_site5072] | 6.53 |
| AAAAAAAAAAAAATGTGTACATACATATATTTATAT [XGTACX_site3076] | 7.41 |
| ATTACATATTGATAAGTGCAAGTGTGAGAAATGTTA | 7.65 |
| TCTATATAGATTTGCACACATAAAAATGCTTATATA [CACACA_site2389] | 7.16 |
| AATATATTATATATATGTACATATGTGTATACATTT [XGTACX_site937] | 7.09 |
| TTTTATTTATTTTATTGTACATATATAAAACTATGA [XGTACX_site3476] | 7.02 |
| CAATCAAATGGACACACACACACCTAAACATAAAAG [CACACA_site5524] | 7.21 |
| ATTAAAAAATTACAAGCATGCTTGTTAAAATTTTTT [TGCATGCA_site941] | 6.61 |
| CTTTTTTTTTTAAATTGTACAAATGTGATGTAATAG [XGTACX_site3219] | 7.31 |
| TATTTTAATATGTATACATGCATACCTACTCATACA [TGCATGCA_site779] | 6.94 |

| Sequence | gcPBM binding intensity (ln) |
| --- | --- |
| TAAAATTTTATAAAGGAACACACATTTTTTTTTTTT [CACACA_site8740] | 6.87 |
| AACTTGTATTTATACACACACACACTGTCTTTTTTT [CACACA_site7009] | 6.94 |
| TAGACAAAATATAATGCACACTATTATTTTTATTTA [CACACA_site5508] | 7.33 |
| AAAAAAGTTGTATTTGCACACATAAAAAAAAGATAT [CACACA_site3839] | 7.32 |
| AATTTAAAAATGGACACACACAAAAAATAATACTTA [CACACA_site250] | 6.92 |
| GTATATTATATTGGGTGTACCATATATAATATAATC [XGTACX_site8579] | 7.1 |
| TTATAAATAAAAAATACACACATATATATATATATA [CACACA_site207] | 9.36 |
| TAAAAATATATATGATTGCACTTAGGACAATATATA | 7.42 |
| GGAAACAAAAAATATATACACACTAATCATAAAAAA [CACACA_site7890] | 6.81 |
| ATTAATATATTATCATGTACACAAAAATAATTTTAT [XGTACX_site7257] | 7.36 |
| TATTCTCTCTTATGAACACACATTTTTATTTTCAAA [CACACA_site7554] | 7.25 |
| AAGAAAAATATATAAATAAATAAATATATAAATATA [CACACA_negctrl_site836] | 6.7 |
| AGAAAGAAAGAATACACACACACATATATAAATATC [CACACA_site7716] | 6.89 |
| ATTATCAATATGAAGGTGCATTTAAATAATATTTAC | 10.7 |
| TATATTCTTTATAGGTGTACTTAATAAATAAAAAAT [XGTACX_site5378] | 7.34 |
| TATGAACATAAATTTGCACACTGGATATAATATATA [CACACA_site2155] | 7.21 |
| TATATATATGTGTTTACACACAATAATGAATTAAAA [CACACA_site4659] | 7.28 |
| TATCTAGTTACTCCTTGTACATAATAAATGATTTTT [XGTACX_site5674] | 7.18 |
| ACTAAACTTTTATGTACACACATATAACATTAATTT [CACACA_site5276] | 7.42 |
| TACGTAAAAATAGGACGTACTTATTTAGAAACCATA [XGTACX_site2498] | 7.09 |
| TTGGTACCTATAGATACACACATATATACCTATATA [CACACA_site5812] | 6.81 |
